Data: ChEMBL document CHEMBL4888484, “Replenishing the malaria drug discovery pipeline: Screening and hit evaluation of the MMV Hit Generation Library 1 (HGL1) against asexual blood stage Plasmodium falciparum ,using a nano luciferase reporter read-out” (2022)
In all, about 150,000 compounds went through this assay and about 540 (0.36%) showed an effect of 50% or more. The list shows a part of the results.

Test system: Plasmodium falciparum
Experiment: Primary screen in NF54 nanoGlo assay, in single point, at 2uM, 72h; a lower Z score goes with more inhibition
Assay type: functional, Erythrocyte
Settings: timepoint 72 hour

| Structure (SMILES) | % Inhibition | Z score |
| --- | --- | --- |
| Cn1cccc(C(=O)NCCc2nc3c(c(C(F)(F)F)n2)CCCC3)c1=O | -2% | 0.26 |
| Cn1cc(C(NC(=O)c2ccc(Cl)cc2F)[C@H]2C[C@H](O)C2)cn1 (some centres undefined) | -17% | 1.54 |
| C[C@H]1CC[C@@H](C(=O)O)N1S(=O)(=O)c1ccc(C(F)(F)F)s1 | -10% | 1.09 |
| CCN(CC)[C@H]1CCN(Cc2nc(C3(c4ccc(C)cc4)CCCC3)no2)C1 | -12% | 1.58 |
| CN(C(=O)NC(=O)c1ccccc1)c1ccccc1 | 0% | 0.03 |
| CC(C)c1ccc(-n2cc(O)c(C(=O)N(C)C3CCN(C(=O)OC(C)(C)C)CC3)n2)cc1 | 0% | -0.04 |
| CN(CC(=O)NCCc1cccc2cccnc12)CC1(O)CCCC1 | -17% | 1.53 |
| O=C(NCCCc1ccccc1)C1CCN(c2nnc3ccc(Cl)cn23)CC1 | -21% | 2.28 |
| COCC1(C(=O)Nc2cc(OC)ccc2-n2cnnn2)CCC1 | -14% | 2.74 |
| O=C(C[C@H]1C(=O)NCCN1Cc1ccc2ccccc2c1)NCc1ccc(Cl)cc1 | -12% | 1.7 |
| C[C@]1(F)CCN(C(=O)c2cc(C#N)c[nH]2)C1 | -3% | 0.6 |
| CN(CCC1CCOCC1)[C@H]1CCN(c2ccccc2)C1=O | -10% | 1.31 |
| COc1ccc(C(=O)N2CCCCCC2=O)cc1 | 2% | -0.37 |
| O=C(c1ccccc1)N1CCCn2cc(-c3ccc4c(c3)OCO4)nc21 | -3% | 0.59 |
| CCc1ccccc1OCCN1CC[C@]2(O)CCN(C(=O)C3CCC3)C[C@@H]2C1 | -11% | 1.96 |
| C[C@H]1[C@@H](NC(=O)c2csc(C(C)(C)C)n2)CCS1(=O)=O | -8% | 1.39 |
| CC(C)(C(N)=O)N1CCN(C(=O)NC[C@H]2CCCO2)CC1 | -4% | 0.55 |
| COc1cc(-c2noc(C3CCCC3)n2)ccc1OCc1cccc(C)c1 | -5% | 0.59 |
| CC1CC1C(NC(=O)C(C)N1CCN(C)CC1)c1ccc(Cl)cc1 (centres undefined) | -7% | 0.74 |
| O=C(Cn1nc2n(c1=O)C(=O)N(c1ccc(Cl)cc1)C2)Nc1nccs1 | -6% | 0.72 |
| Cn1cnnc1C[C@H]1CCN(S(=O)(=O)c2ccc3c(c2)CCC3)C1 | -11% | 1.4 |
| CCOC(=O)N1CCc2c(sc(NC(=O)CN3CCOCC3)c2C(=O)Nc2cccc(Cl)c2)C1 | 3% | -0.47 |
| CN1C(=O)[C@@H]2CCC[C@H]1CN(C(=O)NCc1cc(Cl)ccc1Cl)C2 | -13% | 2.71 |
| CCCN1C[C@@H](CNC(=O)c2cnc3c(c2)ncn3C)CC1=O | -8% | 1.52 |
| CCc1nccc(CN(C)[C@@H](C)c2ccncn2)n1 | 9% | -0.85 |
| Cn1cc(-c2ccc(F)cc2)cc1C(=O)N1CCCC1 | 6% | -0.98 |

| Structure (SMILES) | % Inhibition | Z score |
| --- | --- | --- |
| Cc1ccccc1N1CCCN(C(=O)Cn2ncc(N3CCCCC3)cc2=O)CC1 | -13% | 2.25 |
| CC1CCC(NC(=O)N2CCC(S(C)(=O)=O)C2)c2ccccc21 (centres undefined) | -11% | 2.17 |
| O=C(c1csc(S(=O)(=O)N2CCC(C(=O)N3CCCCCC3)CC2)c1)N1CCCCC1 | -18% | 2.93 |
| Cc1cccc(-c2nc(C)c(Cc3ccccc3)c(N3CCN(C(=O)Nc4cccc(C)c4C)CC3)n2)c1 | 11% | -1.64 |
| O=C(c1ccc2c(c1)C(=O)N(c1ccccc1Cl)C2=O)c1ccc2c(c1)C(=O)N(c1ccccc1Cl)C2=O | 11% | -1.39 |
| O=C(O)c1ccccc1-c1nccn1Cc1cnn(Cc2ccccc2)c1 | -8% | 1.42 |
| CN(Cc1ccccn1)C(=O)C1(N2CCCCC2)Cc2ccccc2C1 | -17% | 2.66 |
| CCc1cc2c(N3CCC4(CC3)C[C@@H]4C(=O)O)ncnc2s1 | -7% | 1.47 |
| O=C(NC1CCCCCC1)c1nc(Cn2cnc3ccccc3c2=O)no1 | -7% | 0.86 |
| COc1c(C)cc(NS(=O)(=O)c2ccc(-n3c(=O)c(C(C)C)c(C)n3C)cc2)cc1C | -9% | 1.56 |
| C[C@@H](C(=O)NC1CCCC1)N1CCC(NC(=O)c2ccccc2)CC1 | 12% | -1.65 |
| Cc1nc(-c2ccc(Br)cc2Cl)nn1CN1CCN(c2ncccn2)CC1 | -11% | 1.48 |
| Cc1cc(C)n(-c2nc(CCNC(=O)c3cn(C)nn3)cs2)n1 | -4% | 0.56 |
| Cc1ccc(Oc2ccc(C#N)nn2)cc1F | 7% | -1.24 |
| CCN(Cc1noc(C2CCC2)n1)Cc1ccccc1C#N | -1% | 0.12 |
| COc1ccc(CCCCNC(=O)NC2CC3CCC2O3)cc1 (centres undefined) | -4% | 0.43 |
| CNC(=O)c1[nH]nc2c1CN(C(=O)N[C@H]1CC(=O)N(c3ccc(F)cc3)C1)CC2 | -7% | 0.79 |
| Cc1cnc(CCN(C)C(=O)C2CC3CCC2C3)s1 (centres undefined) | -2% | 0.17 |
| CCC[C@H](C)N1CC2(CCN(C(=O)CCc3ccccn3)CC2)OC1=O | -5% | 0.93 |
| O=C(CCc1ccccn1)N1CCc2cccc(F)c21 | -5% | 0.67 |
| CC(=O)N1CCN(c2ncccc2CNC(=O)c2cc(Cl)c[nH]c2=O)CC1 | -20% | 2.05 |
| O=C(Nc1nnc(-c2cc3ccccc3o2)s1)N[C@H]1CC[C@@H](CO)CC1 | -24% | 2.76 |
| CN(C(=O)c1sc2ncccc2c1N)C1CCCCC1 | -1% | 0.19 |
| CC1=N[C@](C)(c2ccc(N)cc2)CC(=O)N1C | -8% | 1.14 |
| CC(C)CS(=O)(=O)N1CCC(N2C(=O)[C@@H]3CCCN3C2=O)CC1 | -10% | 0.98 |
| CNc1ccc(C(=O)N2C[C@@H](C)N(C)[C@@H](C)C2)cn1 | 14% | -1.76 |
